Among all 390,000 compounds or so, about 4,700 (1.2%) were called active. The inconclusive results got no clear call from the source; some entries with a clear call stand among them for comparison. Calls follow the shape of the dose curve; as a rule, active = well fitted inhibition curve with a large enough effect; inconclusive = small, poorly fitted or top-dose-only effect, or another doubt; inactive = no such curve, though single readings can be large or run the other way. Potencies of inconclusive entries are doubtful fits and often do not repeat.
These compounds were tested against DNA polymerase eta (Homo sapiens) (UniProt Q9Y253) (assay: qHTS for Inhibitors of Polymerase Eta). Settings: recombinant Pol eta, fluorescent DNA replication assay; series mostly up to 114 µM; activity change, negative = inhibition: at the top concentration.
Sequence of UniProt Q9Y253 (Q9Y253 whole entry, looked up): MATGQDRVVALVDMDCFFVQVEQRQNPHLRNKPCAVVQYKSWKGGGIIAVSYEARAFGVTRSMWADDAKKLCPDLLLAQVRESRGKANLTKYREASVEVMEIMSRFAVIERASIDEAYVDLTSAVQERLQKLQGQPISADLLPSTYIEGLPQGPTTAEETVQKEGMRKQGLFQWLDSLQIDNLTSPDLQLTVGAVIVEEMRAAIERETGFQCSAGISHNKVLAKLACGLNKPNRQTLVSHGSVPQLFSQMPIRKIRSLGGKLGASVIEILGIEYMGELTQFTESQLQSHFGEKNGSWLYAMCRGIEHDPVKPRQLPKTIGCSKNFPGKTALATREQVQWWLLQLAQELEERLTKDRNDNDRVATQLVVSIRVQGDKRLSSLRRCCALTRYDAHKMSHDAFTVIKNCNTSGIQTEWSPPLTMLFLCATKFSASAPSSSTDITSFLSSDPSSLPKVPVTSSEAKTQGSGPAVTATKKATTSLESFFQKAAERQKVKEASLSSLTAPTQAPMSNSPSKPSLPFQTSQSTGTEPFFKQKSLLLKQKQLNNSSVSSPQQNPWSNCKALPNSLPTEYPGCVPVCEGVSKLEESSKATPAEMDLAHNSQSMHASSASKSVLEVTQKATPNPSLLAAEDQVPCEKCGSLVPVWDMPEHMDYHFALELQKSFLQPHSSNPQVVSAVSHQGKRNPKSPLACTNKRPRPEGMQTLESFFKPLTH
Procedure, shortened: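 Fluorescent replication assay: 50 nM final substrate added after a 15 min room-temperature compound preincubation with 10 nM enzyme. Signal taken at 0 min and again at 10 min.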
% is scaled to controls: 0 for no effect and ±100 for the full control effect; potency is read from the fitted curve at half-maximal effect; tags tell the direction and shape of the fitted curve.

Structure (SMILES)	Potency	activity change, negative = inhibition
COC1=CC(=O)c2c(ccc3ncnc(N)c23)C1=O	active: 4.47 µM	–
CC(Nc1ccc(Br)cc1)C(=O)NC(=O)NC1CCCCC1 (centres undefined)	–	inactive: -18%
CCc1cccc(CC)c1-n1c(SCC(=O)c2c(N)n(C)c(=O)n(C)c2=O)nnc1-c1cccnc1	inconclusive: 10 µM [inhibitor, partial curve]	–
Cc1cccc(NC(=O)Cn2c(=O)n3nc(CCn4nc(C)cc4C)nc3c3ccccc32)c1	inconclusive: 89.1 µM [inhibitor, partial curve, poor fit]	–
COc1ccc(NC(=O)/C(=C/c2ccc3c(c2)OCO3)NC(C)=O)cc1	inconclusive: 100 µM [inhibitor, partial curve, poor fit]	–
CCOC(=O)Cn1c(=NC(=O)c2sc3ccccc3c2Cl)sc2cc(S(N)(=O)=O)ccc21	inconclusive: 3.16 µM [inhibitor, full curve, poor fit]	–
COc1ccc(-c2cc(C(=O)Oc3cccc(C)c3)c3ccccc3n2)cc1	–	inactive: -22%
CCCCCCCCOC(=O)c1cc([N+](=O)[O-])c(Sc2ncnc3nc[nH]c23)c([N+](=O)[O-])c1	inconclusive: 28.2 µM [inhibitor, partial curve, poor fit]	–
Cc1ccc(CS(=O)(=O)c2cn(CC(=O)N(C)c3ccccc3)c3ccccc23)cc1	inconclusive: 50.1 µM [inhibitor, partial curve, poor fit]	–
COc1cccc(C(C(=O)NC2CCCCC2)N(C(=O)c2ccco2)c2ccccc2OC)c1 (centres undefined)	inconclusive: 79.4 µM [inhibitor, partial curve, poor fit]	–
CC(=O)c1ccc(N2C(=O)N(Cc3cccc(C(F)(F)F)c3)c3ccccc3S2(=O)=O)cc1	inconclusive: 3.55 µM [inhibitor, partial curve, poor fit]	–
COc1cc(NC(=O)c2c(-c3ccc(C)cc3)nnc3ccccc23)cc(OC)c1OC	–	inactive: -8.92%
CC(Oc1ccccc1)C(=O)OCC(=O)Nc1sccc1C(N)=O (centres undefined)	inconclusive: 15.8 µM [inhibitor, single point]	–
COc1cc(OC)cc(C(=O)NCC(=O)OCC(=O)Nc2ncc(Cl)cc2Cl)c1	inconclusive: 25.1 µM [inhibitor, full curve]	–
COc1ccccc1N(C)S(=O)(=O)c1ccc(Cl)c(C(=O)Nc2ccncc2)c1	inconclusive: 100 µM [inhibitor, single point]	–
Cn1c(SCC(=O)NC2CC2)nnc1C1CC1	–	inactive: -7.33%
Cc1cc(OCc2ccc(C(=O)n3cccn3)o2)ccc1Cl	–	inactive: -6.26%
O=C(COC(=O)c1ccc(Br)o1)Nc1ncc([N+](=O)[O-])s1	active: 3.16 µM	–
O=C(O)c1ccc(-c2nc(-c3ccc(Cl)c(Cl)c3)cs2)cc1	–	inactive: -14.8%
COc1cc(C=NNc2ccc(S(=O)(=O)Nc3ccccc3C(=O)O)cc2[N+](=O)[O-])ccc1O	active: 50.1 µM	–
Oc1ccc(-c2csc(-c3cccnc3)n2)c(O)c1	inconclusive: 39.8 µM [inhibitor, partial curve, poor fit]	–
O=C(c1cccnc1)N1C2C=CC(C2)C1(C(F)(F)F)C(F)(F)F (centres undefined)	active: 14.1 µM	–

Structure (SMILES)	Potency	activity change, negative = inhibition
Cc1ccccc1S(=O)(=O)N1[C@@H](c2cccc(Cl)c2)C(C(=O)O)=CC[C@H]1c1ccc(Cl)cc1	active: 89.1 µM	–
O=C1NN(c2ccccc2)C(=O)/C1=C/c1ccc(-c2ccc(C(=O)O)cc2)o1	active: 7.08 µM	–
O=C(COC(=O)C1CC2C=CC1C2)Nc1ccc([N+](=O)[O-])cc1 (centres undefined)	–	inactive: -21.2%
O=C(NCc1ccccc1Cl)C1CCN(S(=O)(=O)c2ccc3c(c2)CCCN3C(=O)C2CCC2)CC1	–	inactive: -14.9%
COc1cc(Cn2c(N)c(C#N)c3nc4ccccc4nc32)cc(OC)c1	inconclusive: 22.4 µM [inhibitor, single point]	–
Cc1nc2sccn2c1-c1nc(-c2cc3ccccc3o2)cs1	inconclusive: 28.2 µM [inhibitor, partial curve, poor fit]	–
O=C(COC(=O)c1cccnc1Nc1ccccc1F)NC1CC1	inconclusive: 79.4 µM [inhibitor, partial curve, poor fit]	–
Cc1ccc2nc(/C(C#N)=C/c3cccc(Br)c3)[nH]c2c1	active: 56.2 µM	–
N#C/C(=C\c1ccc(-c2ccccc2C(=O)O)o1)c1nc2ccccc2[nH]1	inconclusive: 25.1 µM [inhibitor, full curve]	–
CC(=O)c1ccc(S(=O)(=O)Nc2ccc(N3CCOCC3)cc2)cc1	inconclusive: 39.8 µM [inhibitor, partial curve]	–
COCCn1c(=N)c(C(=O)NCc2ccco2)cc2c(=O)n3ccccc3nc21	inconclusive: 28.2 µM [inhibitor, single point]	–
Cc1ccc(Nc2nnc(SCC(=O)NCc3ccco3)s2)cc1	inconclusive: 28.2 µM [inhibitor, single point]	–
CCC(=O)N1CCN(c2ccccc2NC(=O)c2ccc(-c3cccc([N+](=O)[O-])c3)o2)CC1	inconclusive: 20 µM [inhibitor, partial curve, poor fit]	–
O=C(CCC1CC(=O)Nc2ccccc21)NCc1ccccc1 (centres undefined)	active: 89.1 µM	–
O=C(O)c1ccc(Cl)c(S(=O)(=O)Nc2ccc3cn[nH]c3c2)c1	active: 17.8 µM	–
COc1ccc(C(=O)OCc2cc(=O)oc3cc(C)ccc23)cc1S(=O)(=O)N1CCOCC1	–	inactive: 2.16%
Nc1nc(-c2cc(O)ccc2[N+](=O)[O-])cc(-c2ccccc2)c1[N+](=O)[O-]	active: 89.1 µM	–
CC1CCN(C(=O)c2ccc(NS(=O)(=O)c3cccc4cccnc34)cc2)CC1	inconclusive: 79.4 µM [inhibitor, partial curve, poor fit]	–
CC(CC1C(C#N)=C(N)SC(N)=C1C#N)c1ccccc1 (centres undefined)	–	inactive: -11.9%
CCOC(=O)C1=C(O)c2ccccc2C(=O)/C1=C\c1ccc(C)cc1	inconclusive: 50.1 µM [inhibitor, partial curve, poor fit]	–
COc1ccc(NC(=O)CSc2nc3ccccc3[nH]2)cc1	–	inactive: -14.9%
Cc1ccc(CC2(OCCN(C)C)CCC(C(C)(C)C)CC2)cc1 (centres undefined)	inconclusive: 39.8 µM [inhibitor, partial curve, poor fit]	–
